Where “and” joins values, the source holds several entries; their conditions need not be identical. Equal values may be shown once. The whole screen tested about 110,000 compounds, of which about 230 (0.21%) showed an effect of 50% or more. Some of the results follow.
Biological target: DPAP1 (Plasmodium falciparum, UniProt Q8IIJ9)
Assay: primary screen, percent inhibition; read by cleavage of a fluorogenic dipeptide substrate; higher = more effect of the substance
Set-up: species or system P. falciparum D10 trophozoite lysates; single well
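Also: 30 min substrate incubation versus DMSO and 10 µM JCP410 controls.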

DPAP1, sequence (Q8IIJ9 whole entry, looked up): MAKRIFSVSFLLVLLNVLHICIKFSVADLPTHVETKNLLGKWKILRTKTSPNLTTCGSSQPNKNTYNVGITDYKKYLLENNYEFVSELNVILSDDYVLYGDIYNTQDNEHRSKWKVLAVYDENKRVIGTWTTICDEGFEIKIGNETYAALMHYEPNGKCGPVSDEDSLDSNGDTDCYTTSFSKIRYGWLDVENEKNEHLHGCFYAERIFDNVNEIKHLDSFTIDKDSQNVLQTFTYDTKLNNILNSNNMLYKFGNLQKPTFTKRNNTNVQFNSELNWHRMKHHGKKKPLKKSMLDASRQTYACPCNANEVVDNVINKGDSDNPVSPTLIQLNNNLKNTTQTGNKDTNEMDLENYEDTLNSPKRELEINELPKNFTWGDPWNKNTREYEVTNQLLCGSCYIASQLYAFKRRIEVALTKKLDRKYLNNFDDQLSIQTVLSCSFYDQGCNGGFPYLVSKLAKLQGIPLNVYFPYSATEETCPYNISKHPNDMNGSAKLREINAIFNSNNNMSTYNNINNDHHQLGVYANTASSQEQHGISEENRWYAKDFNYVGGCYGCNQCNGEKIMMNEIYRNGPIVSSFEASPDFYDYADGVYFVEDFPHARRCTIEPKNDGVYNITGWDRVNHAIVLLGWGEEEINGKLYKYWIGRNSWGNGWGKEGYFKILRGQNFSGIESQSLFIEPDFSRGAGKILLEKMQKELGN

| Compound | % Inhibition @ 10 uM |
| --- | --- |
| Cc1ccc(S(=O)(=O)Nc2cccc(C(=O)NC(C)(C)CO)c2)cc1 | -3.58% |
| O=C(NC1CCCCC1)N(Cc1ccccc1)Cc1ccco1 | -1.33% |
| O=S(=O)(Nc1ccccc1)c1cccc(S(=O)(=O)c2ccc(Cl)cc2)c1 | 3.01% |
| COc1ccccc1C(=O)N(Cc1ccc(C)o1)C1CCS(=O)(=O)C1 (centres unmarked) | 1.99% |
| O=C(CCCC(=O)c1ccccc1)NCCc1ccccc1 | -8.86% |
| CCOC(=O)C1=C(C)NC(=O)NC1c1ccc(OC)c(Cn2nnc3ccccc32)c1 (centres unmarked) | -0.169% |
| COc1cc(C2CC(=O)NC(SCC(=O)Nc3ccc(Br)cc3)=C2C#N)ccc1O (centres unmarked) | -5.34% |
| COCCN1C=C(C(=O)OC)C(c2ccsc2)C(C(=O)OC)=C1 | -5.01% |
| CCc1ccccc1NC(=O)CN(c1ccc(OC)cc1OC)S(C)(=O)=O | -3.25% |
| O=C(NCc1ccc(F)cc1)c1cnc(N2CCCC2)nc1 | 0.44% |
| CCOc1cccc2c1Oc1nc(-c3ccccc3)nc(SCC(N)=O)c1C2 | 9.33% |
| CCN(CC)c1nc(N)nc(Nc2ccc3cc(-c4ccccc4)c(=O)oc3c2)n1 | 2.13% |
| COc1ccc(NC2=CC(c3ccc(OC)c(OC)c3)N(c3ccc(OC)cc3)C2=O)cc1 (centres unmarked) | 7.98% |
| O=C(O)c1cccc2c1C(=O)c1cc(Cl)ccc1-2 | -10% |
| CC(C)(C)C1CCC(N2CCN(c3ccccc3F)CC2)CC1 (centres unmarked) | -5.44% |
| COc1ccc(C(=O)Nc2nc3n(n2)C(c2ccccc2)CC(=O)N3)cc1 (centres unmarked) | 1.31% |
| CCN1C(=O)C(CC(=O)Nc2cc(C)ccc2C)S/C1=N\c1cccc(OC)c1 (centres unmarked) | -1.26% |
| O=C(NCCc1ccccc1)c1ccc2c(O)c(S(=O)(=O)c3ccc(Cl)cc3)c(O)nc2c1 | 5.55% |
| Cc1ccc(OCC(=O)Nc2cccc(NC(=O)c3ccccc3)c2)cc1C | -8.49% |
| CCCCNC(=O)CN1N=C(c2ccccc2)CCC1=O | 3.79% |
| Cc1ccc(C)c(Cn2c3ccccc3c3cnn(CC(=O)NCc4ccccn4)c(=O)c32)c1 | 3.4% |

| Compound | % Inhibition @ 10 uM |
| --- | --- |
| Cc1ccc(C(=O)Nc2cc3c(oc2=O)CC(C)(C)CC3=O)cc1 | 0.221% |
| CCN1CCN(c2c(C(=O)c3ccccc3)cnc3cc4c(cc23)OCCO4)CC1 | 2.98% |
| O=C(NCCc1nc(-c2ccccc2)cs1)c1ccccc1 | 1.89% |
| COc1ccc(-n2nc3c(c2NC(=O)c2ccc(S(=O)(=O)N(C)C)cc2)CS(=O)(=O)C3)cc1 | 6.18% |
| CCOc1ccc(CNC(=O)C2CCC(=O)N2C2CCCC2)cc1OC (centres unmarked) | 2.18% |
| O=C(NCCc1ccccc1)c1cccnn1 | -1.05% |
| CCCCNCC(O)COc1ccc(Cl)c(C)c1 (centres unmarked) | 2.6% |
| Cn1c(=O)c(C(=O)Nc2nc(-c3ccc(Cl)cc3)cs2)c(O)c2ccccc21 | -0.622% |
| Cc1ccc(C(=O)O/N=C(\N)Cc2cccs2)c(Cl)c1 | 5.17% |
| O=C(CSc1nc2c(sc3ccccc32)c(=O)n1CC1CCCO1)NCc1ccccc1 (centres unmarked) | 6.94% |
| CCCCC(=O)c1c(C)cc(C)nc1O | 0.177% |
| Cc1cc(O)nc(SCc2nc(-c3cccs3)no2)n1 | 3.93% |
| CC[C@H](C)[C@H](NC(=O)Cc1ccncc1)C(=O)N[C@@H](CCc1ccccc1)C(=O)CO | -4.17% |
| CCOC(=O)c1c(C)[nH]c(C)c1S(=O)(=O)NC1CCN(C(=O)OCC)CC1 | -0.342% |
| Cc1ccccc1CS(=O)(=O)CCC(=O)O | -2.14% |
| Cc1cccnc1NC(=O)C(C)N1C(=O)c2ccccc2C1=O (centres unmarked) | 3.04% |
| CCOC(=O)C1=C(C)OC(N)=C(C#N)C1c1c(Cl)cccc1Cl (centres unmarked) | 19.2% |
| COc1cccc(-c2nc(SCc3ccc(Br)cc3)n3[nH]c(=O)cc3n2)c1 | -2.85% |
| COc1ccc(-c2cc(C(F)(F)F)n3ncc(C(=O)NCc4ccco4)c3n2)cc1OC | 2.94% |
| CCOC(=O)c1cnc2nc(NC(=O)c3ccc(F)cc3)nn2c1O | -4.91% |
| OCC1CCCN(Cc2ccc(F)cc2F)C1 (centres unmarked) | -4.15% |

| Compound | % Inhibition @ 10 uM |
| --- | --- |
| COc1c(C(=O)N[C@@H](CC(C)C)C(=O)NCC#N)csc1-c1ccccc1C | 3.19% |
| Cc1cc(=O)n2nc(N3CCCC(C(=O)NC(C)CCc4ccccc4)C3)sc2n1 (centres unmarked) | -3.79% |
| Cc1cccc(CCNC(=O)c2cc(S(=O)(=O)N3CCCC3)cn2C)c1 | 1.1% |
| COc1ccc(N2CCN(S(=O)(=O)c3ccc(Br)s3)CC2)cc1 | -0.469% |
| COc1ccc(S(=O)(=O)Cc2ccc(C(=O)NCCc3cc(OC)ccc3OC)o2)cc1 | 0.238% |
| O=C(O)c1cc(Cl)c(Cl)cc1C(=O)N1CCCCC1 | -2.54% |
| CN(CCNC(=O)C1CCN(c2ncnc3c2nc2n3CCCCC2)CC1)C1CCCCC1 | 2.82% |
| O=C(O)c1ccc(CN2CCCCCCC2)cc1 | -1.98% |
| C=CCC1(O)C(=O)N2C(=C1C(=O)N1CCCCC1)c1ccccc1CC2(C)C (centres unmarked) | 2.43% |
| CCOc1ccc(/C=C2/SC(=O)N(CN3CCCCC3)C2=O)cc1OCC | 5.79% |
| Oc1nc(/C=C/c2ccc3c(c2)OCO3)cc(C(F)(F)F)n1 | -0.414% and -6.7% |
| Cc1ccccc1C(=O)N1CCC2(CC1)N=C(c1ccc(C(C)(C)C)cc1)C(=O)N2 | 4.17% |
| Cc1ccc(N2CC(C(=O)Nc3cc(C(F)(F)F)ccc3Cl)CC2=O)cc1 (centres unmarked) | 10.5% |
| N#Cc1c(N)sc2c1CCN(Cc1ccccc1)C2 | 2.7% |
| CCOc1ccc(C(=O)Nc2c(C)cccc2C)cc1 | -2.17% |
| CC(C)(O)C#Cc1ccc(C(=O)N2CCN(c3ccccc3F)CC2)cc1 | 3.06% |
| Cc1sc2c(c1C)CN(C1CC(C)(C)NC(C)(C)C1)CN2C(=O)c1ccco1 | 14.3% |
| Cc1cccc(N(CC(=O)NCc2ccco2)S(=O)(=O)c2ccccc2)c1C | -0.473% |
| COc1cc2ncc(S(=O)(=O)c3ccc(Cl)cc3)c(N3CCC(C(N)=O)CC3)c2cc1OC | -0.405% |
| COc1ccc(CCNS(=O)(=O)c2csc(C(N)=O)c2)cc1OC | 2.18% |
